Laboratory results: publication PMC5501724, “Structural Basis for Specific Interaction of TGFβ Signaling Regulators SARA/Endofin with HD-PTP” (Structure(London, England:1993), 2017)
Residue numbers refer to the chain shown, from its start. These are yes or no findings as the source states them, for the method shown. Binding seen in cells or lysates may run through a third protein. Some binding calls cover weakened binding; strength is not graded here. For some of these results: Sequences can lack the tags named with a protein.

The chains behind the UniProt entries cited, without tags or fusion partners.
UniProt Q7Z3T8: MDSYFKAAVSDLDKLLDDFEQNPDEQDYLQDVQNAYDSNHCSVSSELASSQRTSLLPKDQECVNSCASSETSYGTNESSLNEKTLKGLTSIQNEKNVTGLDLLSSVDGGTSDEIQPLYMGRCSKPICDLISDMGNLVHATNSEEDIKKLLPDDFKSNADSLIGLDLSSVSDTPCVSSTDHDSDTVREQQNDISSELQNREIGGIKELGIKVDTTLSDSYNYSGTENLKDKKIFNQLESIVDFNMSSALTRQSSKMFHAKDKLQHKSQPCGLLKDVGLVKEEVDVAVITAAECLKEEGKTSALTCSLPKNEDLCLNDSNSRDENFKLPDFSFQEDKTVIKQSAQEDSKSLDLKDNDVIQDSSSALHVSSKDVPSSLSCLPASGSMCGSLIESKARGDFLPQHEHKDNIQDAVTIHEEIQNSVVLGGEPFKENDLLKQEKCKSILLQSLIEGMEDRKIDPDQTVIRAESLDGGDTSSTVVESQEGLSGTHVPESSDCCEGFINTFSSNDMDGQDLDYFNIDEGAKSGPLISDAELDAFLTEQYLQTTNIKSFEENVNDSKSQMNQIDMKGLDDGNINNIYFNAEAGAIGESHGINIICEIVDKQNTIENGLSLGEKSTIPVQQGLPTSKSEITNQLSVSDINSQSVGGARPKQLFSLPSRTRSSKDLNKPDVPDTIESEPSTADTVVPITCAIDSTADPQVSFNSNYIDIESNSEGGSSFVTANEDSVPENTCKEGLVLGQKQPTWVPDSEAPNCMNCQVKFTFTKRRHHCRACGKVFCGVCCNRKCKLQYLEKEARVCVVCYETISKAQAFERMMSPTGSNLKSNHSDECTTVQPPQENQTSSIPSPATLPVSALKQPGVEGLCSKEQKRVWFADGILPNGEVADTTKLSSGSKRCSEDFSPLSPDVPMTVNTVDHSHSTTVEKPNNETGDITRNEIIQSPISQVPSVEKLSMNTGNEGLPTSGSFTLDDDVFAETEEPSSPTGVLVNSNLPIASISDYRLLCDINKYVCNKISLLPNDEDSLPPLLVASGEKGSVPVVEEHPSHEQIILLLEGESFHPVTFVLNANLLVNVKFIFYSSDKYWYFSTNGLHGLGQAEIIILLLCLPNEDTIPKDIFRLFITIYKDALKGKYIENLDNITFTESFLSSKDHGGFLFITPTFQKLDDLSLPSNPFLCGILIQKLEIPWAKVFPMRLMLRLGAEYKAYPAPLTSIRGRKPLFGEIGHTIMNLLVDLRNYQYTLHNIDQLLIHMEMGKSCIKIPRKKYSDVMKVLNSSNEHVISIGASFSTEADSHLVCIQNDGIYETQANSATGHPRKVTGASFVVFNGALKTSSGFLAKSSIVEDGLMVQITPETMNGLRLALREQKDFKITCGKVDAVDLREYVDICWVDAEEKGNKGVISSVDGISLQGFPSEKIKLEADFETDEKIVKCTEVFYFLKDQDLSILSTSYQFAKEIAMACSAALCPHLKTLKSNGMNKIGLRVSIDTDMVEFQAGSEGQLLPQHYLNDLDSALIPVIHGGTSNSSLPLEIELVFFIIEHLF

Experiments:
Experiment in all cases: co-IP; HA-tagged HD-PTP constructs expressed in cells; lysates in IP1 buffer (25 mM Tris-HCl pH 7.5, 40 mM NaCl, 0.5% IGEPAL); anti-HA immunoprecipitates blotted for endogenous endofin or SARA
[1] = target: T1, HA-HD-PTP_(Bro1-CC) R198M, expressed in cells (human) (UniProt Q9H3S7)
T1 sequence: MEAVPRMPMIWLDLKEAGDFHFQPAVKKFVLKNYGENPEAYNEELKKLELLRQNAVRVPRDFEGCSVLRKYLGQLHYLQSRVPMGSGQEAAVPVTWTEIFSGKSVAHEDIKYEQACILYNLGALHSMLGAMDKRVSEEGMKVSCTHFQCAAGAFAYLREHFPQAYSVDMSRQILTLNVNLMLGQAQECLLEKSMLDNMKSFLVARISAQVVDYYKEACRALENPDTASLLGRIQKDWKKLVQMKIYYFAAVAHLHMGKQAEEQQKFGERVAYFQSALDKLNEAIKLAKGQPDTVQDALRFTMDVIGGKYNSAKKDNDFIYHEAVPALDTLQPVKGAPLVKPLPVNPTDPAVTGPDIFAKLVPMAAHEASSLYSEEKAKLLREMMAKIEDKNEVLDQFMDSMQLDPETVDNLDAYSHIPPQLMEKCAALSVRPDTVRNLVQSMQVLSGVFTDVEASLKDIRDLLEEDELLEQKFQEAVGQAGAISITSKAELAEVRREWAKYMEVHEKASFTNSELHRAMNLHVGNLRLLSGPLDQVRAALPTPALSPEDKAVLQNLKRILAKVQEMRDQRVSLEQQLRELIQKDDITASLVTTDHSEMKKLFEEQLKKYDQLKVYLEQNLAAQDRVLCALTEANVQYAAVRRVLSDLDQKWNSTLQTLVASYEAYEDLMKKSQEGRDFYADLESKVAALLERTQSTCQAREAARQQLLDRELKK

[2] = target: T2, HA-HD-PTP_(Bro1-CC) R69L, expressed in cells (human) (UniProt Q9H3S7)
T2 sequence: T1 sequence with R69L, M198R

[3] = target: HA-HD-PTP (hemagglutinin-tagged HD-PTP, wild type) (human) (UniProt Q9H3S7)
[4] = target: T3, HA-HD-PTP_(Bro1-CC) wild-type, expressed in cells (human) (UniProt Q9H3S7)
T3 sequence: T1 sequence with M198R

Measured: binding

endogenous endofin (from UniProt Q7Z3T8 1-1539)
binds: all assays above
